Laboratory results reported in PubChem BioAssay AID485344 (National Center for Advancing Translational Sciences (NCATS), 2010).
About 6,900 (2%) of roughly 340,000 compounds were called active. No stated cut-off is given here; in the data, active means inhibition above about 30%; inactive means below that, where a call was filed. Only a part is listed here, and it is no random draw. Where no call is shown, the source filed none.

The compounds below were run against D(2) dopamine receptor (Homo sapiens) (UniProt P14416) (assay: HTS Assay for Allosteric Antagonists of the Human D2 Dopamine Receptor: Primary Screen for Antagonists). Conditions: HEK293 TREx D2 cells, calcium flux, dopamine EC80; at 10 µM; stronger effect = higher value.
How it was run: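 Tetracycline-induced HEK293 T-REx cells expressing D2 force-coupled to calcium signalling were dye-loaded, exposed to compound for 180 s, then challenged with an EC80 of dopamine; calcium flux was followed kinetically for a further 180 s.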
Further: 0% is about no effect.

Chain of UniProt P14416 (P14416 whole entry, looked up): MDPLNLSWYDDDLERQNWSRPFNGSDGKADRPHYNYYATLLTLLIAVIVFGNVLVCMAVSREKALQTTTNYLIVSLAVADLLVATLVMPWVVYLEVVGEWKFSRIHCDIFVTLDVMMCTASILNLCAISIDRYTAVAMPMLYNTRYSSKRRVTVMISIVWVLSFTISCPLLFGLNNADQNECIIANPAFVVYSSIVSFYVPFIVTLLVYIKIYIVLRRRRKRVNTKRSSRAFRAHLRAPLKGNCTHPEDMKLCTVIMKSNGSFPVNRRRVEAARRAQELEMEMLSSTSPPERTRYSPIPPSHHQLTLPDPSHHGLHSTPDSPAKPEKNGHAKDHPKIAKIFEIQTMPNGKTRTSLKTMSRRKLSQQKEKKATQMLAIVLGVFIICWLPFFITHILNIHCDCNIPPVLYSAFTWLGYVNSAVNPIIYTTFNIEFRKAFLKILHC

Point of comparison: `O=C1CC(c2nnc(Cc3cccc(Cl)c3)o2)CN1c1ccccc1` (centres undefined), inhibition 19%. Against it:
- CCOC(=O)c1ccc(NC(=O)N2CC3CCCN3c3ccccc32)cc1 (centres undefined) — lower, -12.9%
- Cc1ccc2nc(-c3cccs3)c(Nc3ccc4c(c3)OCCO4)n2c1 — lower, -10.3%
- O=C(Cn1cc(S(=O)(=O)N2CCCC2)c(S(=O)(=O)N2CCCC2)c1)Nc1ccc(F)cc1 — lower, 2.84%
- CCN(CC)S(=O)(=O)c1ccc2c(c1)N(CC(=O)NCCCN1CCN(c3ccc(OC)cc3)CC1)C(=O)CO2 — higher, 26.5%
- CCCS(=O)(=O)N1CCC(n2c(C)nc3cccnc32)CC1 — lower, 3.87%
- CCN(C(=O)CSc1nc2ccccc2n1CC(=O)N(C)C1CCCCC1)c1ccccc1 — lower, -14%
- CCOC(=O)c1cc(-c2ccccc2)n(CCC(=O)NCCc2ccccc2)c1C — lower, 6.1%
- CCc1ccc(C(=O)c2cn(CC(=O)Nc3cc(OC)ccc3OC)c3ccc(Cl)cc3c2=O)cc1 — lower, -2.15%
- COc1ccc(CNC(=O)c2cnc(N3CCCC3)nc2C)c(OC)c1 — lower, -18.2%
- Cc1ccc(NC(=O)CCC(=O)N2Cc3ccccc3Oc3ncccc32)cc1Cl — lower, 5.81%
- CCOC(=O)c1cnc2ccc(OC)cc2c1Nc1ccc(OCc2ccccc2Cl)cc1 — lower, 11.6%
- COc1ccccc1CNC(=O)C(NS(=O)(=O)c1ccc2c(c1)CCN2C(C)=O)C(C)C (centres undefined) — lower, -5.3%
- COc1ccc(-c2nc3sc(CCNC(=O)Cc4ccccc4)c(C)n3n2)cc1 — lower, 12.2%
- COc1ccc(C2=NS(=O)(=O)N(C)C(C(=O)NC(C)c3ccccc3)=C2)cc1 (centres undefined) — lower, 3.89%
- COc1ccc(C)cc1NC(=O)c1nnn(Cc2cccc(Br)c2)c1N — lower, -15.5%
- Cc1nn(C)c2c1c(-c1ccccc1)cc(=O)n2Cc1ccc(F)cc1 — lower, 13.9%
- COc1ccc(-n2cc(-c3ccc4c(c3)OCO4)n(CC(=O)Nc3cc(Cl)ccc3C)c2=O)cc1 — lower, 2.9%
- COc1ccc(-n2nc3ccc(NC(=O)c4cccc(OCCC(C)C)c4)cc3n2)cc1 — lower, 7.75%
- CCOc1ccc(CNC(=O)C2CCN(c3nc4ccccc4nc3C(F)(F)F)CC2)cc1OC — lower, 4.74%
- CCc1c(C)sc2c1CCN(Cc1ccccc1C#N)C2c1ccccc1 (centres undefined) — lower, 3.66%
- CC1CCN(c2oc(-c3cccs3)nc2S(=O)(=O)c2ccccc2)CC1 — lower, 1.8%
- CCOC(=O)c1cnc2c(ccc3ccccc32)c1Nc1cccc(Cl)c1 — lower, 7.76%
- COc1ccc(CCNC(=O)c2cnc3sc(N4CCOCC4)nn3c2=O)cc1 — lower, 2.74%
- Cc1cccc(C)c1NS(=O)(=O)c1ccc2c(c1)[C@H]1C=CC[C@H]1[C@@H](c1ccc(Cl)cc1)N2 — higher, 25.3%
- CCn1c(CC2C(=O)Nc3ccccc32)nc2ccccc2c1=O (centres undefined) — lower, 1.16%
- CC1CCCCN1S(=O)(=O)c1cc2c(=O)nc3ccccn3c2cc1Cl (centres undefined) — lower, 2.54%
- CCOc1ccc(C2C(C(=O)Nc3ccccc3OC)=C(C)Nc3c(C(=O)Nc4cccc(C)c4)cnn32)cc1 (centres undefined) — lower, -2.9%
- COc1ccc(-n2c(=O)c3ccc(C(=O)NCc4ccc(C)cc4)cc3n(Cc3cccc(Cl)c3)c2=O)cc1 — lower, -2.69%
- Cc1ccc2c(c1)cc1c(=O)n(Cc3ccc(Cl)cc3)nc(C)n12 — lower, 16.1%
- COc1cccc(-c2cc(C(=O)Nc3ccc(Br)c(C)c3)[nH]n2)c1 — lower, -3.08%
- CCC1CN(C(=O)Nc2cccc(OC)c2)c2ccccc2O1 (centres undefined) — lower, 7.85%
- CC(=O)Nc1ccc(S(=O)(=O)NC2(C(F)(F)F)NC(=O)N(c3ccccc3F)C2=O)cc1 (centres undefined) — lower, 9.74%
- COc1ccc2c(c1)c1c(c(=O)n(-c3ccc(F)c(Cl)c3)c(=O)n1CC(N)=O)n2C — lower, 7.94%
- CCOc1ccc(-c2c(C)nn3c(C)c(C(=O)NCCc4ccccc4)cnc23)cc1OCC — lower, -12%
- COc1cccc2c1cc1c(=O)n(CC(=O)O)nc(C)n12 — lower, -8.53%
- CCOc1ccc(Nc2sc(C(=O)c3ccc4c(c3)OCO4)c(N)c2S(=O)(=O)c2ccc(C)cc2)cc1 — lower, -0.764%
- COc1ccc(-c2cc(C(F)(F)F)nc(NCc3ccc(Cl)cc3)n2)cc1 — lower, -6.38%
- Cn1nc(C(=O)N2CCN(c3ccc(Cl)cc3)CC2)c2c1-c1ccccc1S(=O)(=O)C2 — lower, -23.3%
- O=C(Nc1cc(-c2nc3ccccc3o2)ccc1Cl)c1ccc(Br)o1 — lower, -7.49%
- COc1cc(-c2noc(-c3ccc(N(C)C)c([N+](=O)[O-])c3)n2)cc(OC)c1OC — higher, 25.9%
- Cc1ccc(CCNc2nc3c(S(=O)(=O)c4ccccc4)nnn3c3ccsc23)cc1 — lower, -3.81%
- COc1cccc(Cc2nc3ccccc3nc2SCC(=O)N2CCN(c3ccccc3)CC2)c1 — lower, 10.2%
- O=C(Cn1c(-c2cccs2)cc2cc(F)ccc21)N1CCN(c2cccc(Cl)c2)CC1 — lower, 10.9%
- COc1ccc(OC)c(NC(=O)c2c(NCc3ccc(OC)c(OC)c3)sc3c2CCC3)c1 — lower, 8.34%
- CCOc1ccccc1NC(=O)Nc1cc(C(=O)NCc2ccc(C)cc2)ccc1N1CCCC1 — lower, -2.99%
- O=C(Nc1ccc(Br)cc1F)C(NS(=O)(=O)c1cccc2nsnc12)c1ccccc1 (centres undefined) — lower, -2.37%
- Cc1ccc(NC(=O)c2cc3c(-c4ccccc4)nn(-c4ccccc4)c3s2)cc1 — lower, 17.8%
- COc1ccc(NC(=O)Cn2c(=O)n(CC(=O)NCCc3ccccc3)c(=O)c3ccccc32)cc1 — lower, -4.77%
- COc1ccc(CNC(=O)c2cc3c(-c4ccccc4F)nn(C)c3s2)cc1 — lower, 10.9%
- CCc1ccc(NS(=O)(=O)c2ccc3[nH]cc(C(=O)NCc4ccc(C)cc4)c(=O)c3c2)cc1 — lower, -0.447%
- CCOc1ccc(-n2c(=O)c3c4c(sc3n(Cc3cccc(C)c3)c2=O)CCCC4)cc1 — lower, -7.38%
- Clc1ccc2nc(Nc3ccccc3Cl)nc(-c3ccccc3)c2c1 — lower, -4.35%
- CCc1ccc(NCc2cc3cc4c(cc3n(CC(=O)Nc3ccccc3Cl)c2=O)OCO4)cc1 — lower, -4.65%
- CCOCCCNC(=O)C1CCN(c2cc(C)nc3c(-c4ccc(Cl)cc4)c(C)nn23)CC1 — lower, 13.5%
- COc1ccc(N2CCN(C(=O)c3ccc4c(=O)n(CCc5ccc(OC)c(OC)c5)c(=O)[nH]c4c3)CC2)cc1 — lower, -13.4%
- CCNC(=O)c1c(C)oc2ncn(C)c(=O)c12 — lower, -1.29%
- CCc1ccc(CNC(=O)CSc2cc(=O)n(CC)c3ccccc23)cc1 — lower, -4.12%
- Cc1nn(CCCC(=O)Nc2cc(C(F)(F)F)ccc2Cl)c(=O)c2c1sc1ccccc12 — lower, 11.9%
- CCc1nn(CC(=O)N(CC)Cc2ccccc2)c(=O)c2cc3occc3n12 — lower, -4.52%
- COc1ccc(NC(=O)CN2C(=O)CCc3cc(S(=O)(=O)N4CCOCC4)ccc32)c(OC)c1 — lower, 5.78%
- CCOc1ccccc1NC(=O)Cn1c(=O)n(-c2ccccc2)c(=O)c2c1c1cc(C)ccc1n2C — lower, 2.44%
- CCN(C(=O)CSc1nnc(-c2cc3occc3n2C)n1-c1ccccc1C)c1cccc(C)c1 — lower, 8.39%
- COc1ccc(-c2cn3c(n2)sc2cc(C(=O)NCCCN4CCCCC4)ccc23)cc1 — lower, 18.1%
- O=C(CSc1nc(-c2ccccc2)c2ccccc2n1)Nc1ccc(F)cc1 — lower, 1.9%
- Cc1cc(C)c(S(=O)(=O)NCCc2cc3ccc(C)cc3[nH]c2=O)c(C)c1 — lower, 17%
- CC1=C(C(=O)N2CCCCC2)C(c2cccc(Cl)c2)n2c(nc3ccccc32)N1 (centres undefined) — lower, 18.3%
- COc1ccc(-c2c(C#N)c(SCC(=O)Nc3ccc(Br)cc3)nc(C)c2C(=O)Nc2ccccc2)cc1 — lower, 18.9%
- O=C(CN(c1cc(C(F)(F)F)ccc1Cl)S(=O)(=O)c1ccccc1)NCCc1ccccc1 — lower, -16.4%
- COC(=O)c1ccccc1NC(=O)c1cc2c(s1)-c1ccccc1OC2 — lower, -7.2%
- Cc1cc(C)c(Cn2c3ccccc3c3cnn(CC(=O)NCc4ccc(Cl)cc4)c(=O)c32)c(C)c1 — lower, 8.21%
- O=C(Nc1nnc(S(=O)(=O)N2CCCCC2)s1)c1ccc(F)cc1 — lower, 14.1%
- CCOc1ccc(NC(=O)c2cc(S(=O)(=O)N3CCCC3)c[nH]2)cc1 — higher, 22.9%
- CC1=C(C(=O)Nc2ccccc2C)C(c2ccco2)n2ncnc2N1 (centres undefined) — lower, -22.1%
- Cc1noc(Cn2c(=O)c3ccccc3n(CC(=O)Nc3ccc(F)cc3F)c2=O)n1 — lower, -0.447%
- Cc1ccc(CNC(=O)Cn2cc(S(=O)(=O)Cc3cccc(Cl)c3)c3ccccc32)cc1 — higher, 24.5%
- COc1ccc(-c2nc3nc(C)cc(Nc4cccc(C(F)(F)F)c4)n3n2)cc1 — lower, 11.2%
- O=C(CCCc1nc(-c2ccccc2)no1)Nc1cc(C(F)(F)F)cc(C(F)(F)F)c1 — lower, 16.8%

`CC(=O)Nc1ccc(OC(=O)c2ccc(Cl)cc2)cc1` was tested, and the inhibition was active: 32.9%.
In the case of `Cc1ccc(-c2nc3c(c(=O)c4ccccc4n3C)c(=O)n2Cc2ccco2)cc1`, the inhibition is reported as active: 35.6%.
In the case of `CCN1CCN(c2nc(-c3ccccc3Cl)nc3ccccc23)CC1`, the inhibition is reported as active: 38.5%.
In the case of `CN1/C(=C\C(=O)C(F)F)C(C)(C)c2ccccc21`, the inhibition is reported as active: 46.7%.
For `CC1CC(=O)Nc2ccccc2N1C(=O)COc1cc(Cl)ccc1Cl` (centres undefined), the inhibition was active: 30.4%.
For `COCCCNCCOc1ccccc1-c1ccccc1`, the inhibition was active: 92.5%.
In the case of `CSc1ccc2c(c1)N(CCC1CCCCN1C)c1ccccc1S2` (centres undefined), the inhibition is reported as active: 98.1%.
In the case of `CCc1ccc(NC(=S)NC2CC3CCCC(C2)N3Cc2ccccc2)cc1` (centres undefined), the inhibition is reported as active: 40.3%.
`Cc1nn(-c2ccccc2)c(C)c1C(=O)OCC(=O)N(C)C1CCS(=O)(=O)C1` (centres undefined) was tested, and the inhibition was active: 38.2%.
`O=C(C1CCCN1C(=O)c1cccs1)N1CCN(Cc2ccc3c(c2)OCO3)CC1` (centres undefined) was tested, and the inhibition was active: 36.6%.
`O=S(=O)(c1ccc(Cl)cc1)N1CCCC(c2nc(-c3ccc(F)cc3)no2)C1` (centres undefined) was tested, and the inhibition was active: 51.5%.
In the case of `Cc1cc(C)cc(N(C(=O)c2ccco2)C(C(=O)NC2CCCC2)c2ccncc2)c1` (centres undefined), the inhibition is reported as active: 36.6%.
`CC(C)CCn1c(CN2CCN(c3cccc(Cl)c3)CC2)nc2c1c(=O)n(C)c(=O)n2C` was tested, and the inhibition was active: 47%.
For `COc1ccc(CN2CCN(c3ccccc3OC)CC2)cc1OC`, the inhibition was active: 66%.
`CCOc1ccc(C(CC(=O)O)NC(=O)C(CC)c2ccccc2)cc1` (centres undefined) was tested, and the inhibition was active: 35.3%.
With `O=C(Nc1cc(Cl)cc(Cl)c1)N1CCCN(Cc2ccccc2)CC1` the inhibition was active: 86.6%.
